Some entries of the source have several records that differ or are many. The other results are left out here. The source may hold further records. Values given together appear to be repeats (runs, samples, wells or individuals).

The target of this experiment is extracellular domain of the growth hormone receptor (human) (UniProt P10912). Kind of experiment: competition ELISA, plate coated with GHR extracellular domain, inhibition of biotin-hGH binding; affinity relative to hGH. (In general: An ELISA detects its analyte on a solid surface through an enzyme-linked reagent.)
Sequence of UniProt P10912 (P10912 19-264): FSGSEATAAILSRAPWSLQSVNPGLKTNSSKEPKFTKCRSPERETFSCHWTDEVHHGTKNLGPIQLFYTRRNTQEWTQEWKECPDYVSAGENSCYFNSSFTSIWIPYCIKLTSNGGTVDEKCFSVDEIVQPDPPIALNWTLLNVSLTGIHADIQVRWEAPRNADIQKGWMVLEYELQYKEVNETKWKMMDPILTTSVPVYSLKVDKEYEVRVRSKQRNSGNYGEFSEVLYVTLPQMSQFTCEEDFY

Regarding pegvisomant (ligand), the IC50 hGH / IC50 GHRA was 0.026 and 2.6% [one cell].

(Values after US20250101076A1.)
